In US11655268B2, “Nucleoside or nucleotide derivatives, and uses thereof” (ST Pharm Co., Ltd., priority 2018, dated 2023):

What was measured:
[1] = test system: Influenza virus A/Puerto Rico/8/34 (H1N1); assay: Cytopathic effect reduction, influenza A H1N1 (PR8) in MDCK cells, MTT; settings: for Selectivity index FluA H1N1 (PR8): CC50/EC50; for pEC50: read-out: Anti-Flu activity EC50 FluA H1N1 (PR8), MDCK cells, day 3 post-infection
[2] = test system: Influenza virus A/HongKong/8/68 (H3N2); assay: Cytopathic effect reduction, influenza A H3N2 (Hong Kong) in MDCK cells, MTT; settings: for Selectivity index FluA H3N2 (Hong Kong): CC50/EC50; for pEC50: read-out: Anti-Flu activity EC50 FluA H3N2 (Hong Kong), MDCK cells, day 3 post-infection

SMILES	Selectivity index FluA H1N1 (PR8) [1]	pEC50 [1]	Selectivity index FluA H3N2 (Hong Kong) [2]	pEC50 [2]
O=C(Nc1ccn([C@@H]2O[C@H](CO)[C@@H](O)C2(F)F)c(=O)n1)c1ccc(-c2ccccc2)cn1 [Example 25, N-(1-((2R,4R,5R)-3,3-difluoro-4-hydroxy-5-(hydroxymethyl)tetrahydrofuran-2-yl)-2-oxo-1,2-dihydropyrimidin-4-yl)-5-phenylpicolinamide]	>15.4	5.19	>10.5	5.02
O=C(Nc1ccn([C@@H]2O[C@H](CO)[C@@H](O)C2(F)F)c(=O)n1)c1cccnn1 [Example 5, N-(1-((2R,4R,5R)-3,3-difluoro-4-hydroxy-5-(hydroxymethyl)tetrahydrofuran-2-yl)-2-oxo-1,2-dihydropyrimidin-4-yl)pyridazine-3-carboxamide]	>136.4	5.66	>157.9	5.72
COc1ccc(C(=O)Nc2ccn([C@@H]3O[C@H](CO)[C@@H](O)C3(F)F)c(=O)n2)nc1 [Example 21, N-(1-((2R,4R,5R)-3,3-difluoro-4-hydroxy-5-(hydroxymethyl)tetrahydrofuran-2-yl)-2-oxo-1,2-dihydropyrimidin-4-yl)-5-methoxypicolinamide]	>4.8	4.68	>3.6	4.55
O=C(Nc1ccn([C@@H]2O[C@H](CO)[C@@H](O)C2(F)F)c(=O)n1)c1ccc(Cl)nc1 [Example 23, 6-Chloro-N-(1-((2R,4R,5R)-3,3-difluoro-4-hydroxy-5-(hydroxymethyl)tetrahydrofuran-2-yl)-2-oxo-1,2-dihydropyrimidin-4-yl)nicotinamide]	>15.9	5.20	>12.2	5.09
Cn1cc(C(=O)Nc2ccn([C@@H]3O[C@H](CO)[C@@H](O)C3(F)F)c(=O)n2)cn1 [Example 15, N-(1-((2R,4R,5R)-3,3-difluoro-4-hydroxy-5-(hydroxymethyl)tetrahydrofuran-2-yl)-2-oxo-1,2-dihydropyrimidin-4-yl)-1-methyl-1H-pyrazole-4-carboxamide]	>8.3	4.92	14.7	5.17
NC(=O)c1ncn([C@@H]2O[C@H](CO)[C@@H](O)[C@H]2O)n1 [RBV, ribavirin, reference compound]	–	4.37	–	4.67
COc1ccc(C(=O)Nc2ccn([C@@H]3O[C@H](CO)[C@@H](O)C3(F)F)c(=O)n2)cn1 [Example 22, N-(1-((2R,4R,5R)-3,3-difluoro-4-hydroxy-5-(hydroxymethyl)tetrahydrofuran-2-yl)-2-oxo-1,2-dihydropyrimidin-4-yl)-6-methoxynicotinamide]	>5.0	4.70	>2.7	4.44
Cc1nccc(C(=O)Nc2ccn([C@@H]3O[C@H](CO)[C@@H](O)C3(F)F)c(=O)n2)n1 [Example 24, N-(1-((2R,4R,5R)-3,3-difluoro-4-hydroxy-5-(hydroxymethyl)tetrahydrofuran-2-yl)-2-oxo-1,2-dihydropyrimidin-4-yl)-2-methylpyrimidin-4-carboxamide]	>83.3	> 5.92	>45.5	5.66
O=C(Nc1ccn(C2O[C@H](CO)[C@@H](O)[C@H]2F)c(=O)n1)c1ccc(F)cn1 (stereo in doubt) [Example 35, 5-Fluoro-N-(1-((2S,3R,4R,5R)-3-fluoro-4-hydroxy-5-(hydroxymethyl)tetrahydrofuran-2-yl)-2-oxo-1,2-dihydropyrimidin-4-yl)picolinamide]	>1.5	4.18	>5.2	4.72
O=C(Nc1ccn(C2O[C@H](CO)[C@@H](O)[C@H]2F)c(=O)n1)c1ccc(F)nc1 (stereo in doubt) [Example 42, 6-Fluoro-N-(1-((2S,3R,4R,5R)-3-fluoro-4-hydroxy-5-(hydroxymethyl)tetrahydrofuran-2-yl)-2-oxo-1,2-dihydropyrimidin-4-yl)nicotinamide]	>2.2	4.34	>5.6	4.75
NC12CC3CC(CC(C3)C1)C2 [AMT, amantadine hydrochloride, reference compound]	–	< 4.00	>90.9	5.96
O=C(Nc1ccn(C2O[C@H](CO)[C@@H](O)[C@H]2F)c(=O)n1)c1ccc([N+](=O)[O-])cn1 (stereo in doubt) [Example 30, N-(1-((2S,3R,4R,5R)-3-fluoro-4-hydroxy-5-(hydroxymethyl)tetrahydrofuran-2-yl)-2-oxo-1,2-dihydropyrimidin-4-yl)-5-nitropicolinamide]	>5.1	4.71	>28.6	5.46
Cc1nccc(C(=O)Nc2ccn(C3O[C@H](CO)[C@@H](O)[C@H]3F)c(=O)n2)n1 (stereo in doubt) [Example 29, N-(1-((2S,3R,4R,5R)-3-fluoro-4-hydroxy-5-(hydroxymethyl)tetrahydrofuran-2-yl)-2-oxo-1,2-dihydropyrimidin-4-yl)-2-methylpyrimidin-4-carboxamide]	>6.5	4.81	>38.5	5.59
N#Cc1ccc(C(=O)Nc2ccn(C3O[C@H](CO)[C@@H](O)[C@H]3F)c(=O)n2)nc1 (stereo in doubt) [Example 37, 5-cyano-N-(1-((2S,3R,4R,5R)-3-fluoro-4-hydroxy-5-(hydroxymethyl)tetrahydrofuran-2-yl)-2-oxo-1,2-dihydropyrimidin-4-yl)picolinamide]	>2.1	4.33	>16.7	5.22
Nc1ccn([C@@H]2O[C@H](CO)[C@@H](O)C2(F)F)c(=O)n1 [Gemcitabine, reference compound]	344	6.15	344	6.15
O=C(Nc1ccn([C@@H]2O[C@H](CO)[C@@H](O)C2(F)F)c(=O)n1)c1cccc(-c2ccccc2)n1 [Example 17, N-(1-((2R,4R,5R)-3,3-difluoro-4-hydroxy-5-(hydroxymethyl)tetrahydrofuran-2-yl)-2-oxo-1,2-dihydropyrimidin-4-yl)-6-phenylpicolinamide]	>58.8	5.77	>30.3	5.48
CCC(CC)O[C@@H]1C=C(C(=O)O)C[C@H](N)[C@H]1NC(C)=O [OSV-C, oseltamivir carboxylate, reference compound]	–	7.05	–	> 8.30
Cc1cccc(C(=O)Nc2ccn([C@@H]3O[C@H](CO)[C@@H](O)C3(F)F)c(=O)n2)n1 [Example 13, N-(1-((2R,4R,5R)-3,3-difluoro-4-hydroxy-5-(hydroxymethyl)tetrahydrofuran-2-yl)-2-oxo-1,2-dihydropyrimidin-4-yl)-6-methylpicolinamide]	>11.0	5.04	>14.1	5.15
O=C(Nc1ccn(C2O[C@H](CO)[C@@H](O)[C@H]2F)c(=O)n1)c1ccncn1 (stereo in doubt) [Example 36, N-(1-((2S,3R,4R,5R)-3-fluoro-4-hydroxy-5-(hydroxymethyl)tetrahydrofuran-2-yl)-2-oxo-1,2-dihydropyrimidin-4-yl)pyrimidine-4-carboxamide]	>3.0	4.48	>14.7	5.17
Nc1ccn([C@@H]2O[C@H](CO)[C@@H](O)[C@H]2F)c(=O)n1 [2′-FdC, reference compound]	–	5.43	–	4.88
O=C(Nc1ccn([C@@H]2O[C@H](CO)[C@@H](O)C2(F)F)c(=O)n1)c1ccc([N+](=O)[O-])cn1 [Example 19, N-(1-((2R,4R,5R)-3,3-difluoro-4-hydroxy-5-(hydroxymethyl)tetrahydrofuran-2-yl)-2-oxo-1,2-dihydropyrimidin-4-yl)-5-nitropicolinamide]	>71.4	5.85	>50.0	5.70
Cc1cccnc1C(=O)Nc1ccn([C@@H]2O[C@H](CO)[C@@H](O)C2(F)F)c(=O)n1 [Example 12, N-(1-((2R,4R,5R)-3,3-difluoro-4-hydroxy-5-(hydroxymethyl)tetrahydrofuran-2-yl)-2-oxo-1,2-dihydropyrimidin-4-yl)-3-methylpicolinamide]	>1.8	4.24	>1.9	4.29
O=C(Nc1ccn([C@@H]2O[C@H](CO)[C@@H](O)C2(F)F)c(=O)n1)c1ccccn1 [Example 2, N-(1-((2R,4R,5R)-3,3-difluoro-4-hydroxy-5-(hydroxymethyl)tetrahydrofuran-2-yl)-2-oxo-1,2-dihydropyrimidin-4-yl)picolinamide]	>176.5	5.77	>300	6.00
O=C(Nc1ccn([C@@H]2O[C@H](CO)[C@@H](O)C2(F)F)c(=O)n1)c1ccc(C(F)(F)F)nc1 [Example 14, N-(1-((2R,4R,5R)-3,3-difluoro-4-hydroxy-5-(hydroxymethyl)tetrahydrofuran-2-yl)-2-oxo-1,2-dihydropyrimidin-4-yl)-6-(trifluoromethyl)nicotinamide]	>16.7	5.22	>34.5	5.54

pEC50: −log10 of the molar value. Structures can show the parent of a compound that is named as a salt.
